{"source": "paper PMC12136788", "binders": {"B1": {"name": "chr22:35295155:35295256:+|3pUTR|ENSG00000100281|unk|total|mutant (ssRNA)", "RNA": "GGGAGUUCUACAGUCCGACGAUCUUUCUUCUCCUGGCCCUGACAGAGCACUACAGCAUCAAAGUAAAUCUUUGGGGACAGUGCCGCCCAUCUGCAUCCUAUUUAAUUUCUUCCCUUCUCCCCACCAGUGUUGUCACAGGGCUACAACAGAGGAUUGAGCAUCA"}, "B2": {"name": "chr3:46835109:46836203:-|three_prime_utr|ENSG00000160808|control|control|control (ssRNA)", "RNA": "GGGAGUUCUACAGUCCGACGAUCUGAAGGCACAAGCUGUUCCAGUAUAAUAAAGAAAAUAAUUAAAUUAAGAAAAGUUAUACUAGAAAUAAGAUAUAGGUAUGAUUAUUAUUAAUCAUUAGUUUGUAGUAUUACUUUGUUCUACAACAGAGGAUUGAGCAUCA"}, "B3": {"name": "ENSG00000175387:stop:overlap|stop_codon|ENSG00000175387|stop_codon|NA|stop_codon (ssRNA)", "RNA": "GGGAGUUCUACAGUCCGACGAUCUGUUUCAUUGCAUUCUUGCAUAUUCUGGAGUUCAUUUGUAUCUAUUUUCAAUGAGGUUAUAGAGUCAGCUGAUCUUUAUGUAAAAUAAAGUUGGAGGCCUCCAAAUUCAAAACUGUUGCACAACAGAGGAUUGAGCAUCA"}, "B4": {"name": "chr2:88557131:88557241:-|3pUTR|ENSG00000172071|msi1|FALSE|unique (ssRNA)", "RNA": "GGGAGUUCUACAGUCCGACGAUCGAGGACAAGUAGCACAAACUGUAUAACGGUUUAUGUCCGUAGUUUUAUAGUCCUAUUUGUAGCAUUCAAUAGCUUUAUUCCUUAGAUGGUUCUAGGGUGGGUUUACAGCUUUUUGUACUUCAACAGAGGAUUGAGCAUCA"}, "B5": {"name": "ENSG00000107863:be:win_3801|CDS|ENSG00000107863|bound_else_gene|NA|bound_elsewhere_windowed (ssRNA)", "RNA": "GGGAGUUCUACAGUCCGACGAUCUGAACAUCAUUAUGAAACACUUAAGUUCCUUUCAGCUCAUCUGAAGACAGUGGCAGAAAAUUCAGAAAAAAAUAAGAUGGAACCAAGAAACCUAGCAAUAGUGUUUGGUCCCACCCUUGUCAACAGAGGAUUGAGCAUCA"}, "B6": {"name": "chr7:2664602:2664704:+|3pUTR|ENSG00000136295|msi1_unk|FALSE|overlapping (ssRNA)", "RNA": "GGGAGUUCUACAGUCCGACGAUCUCCUCCAGCCUCUGUAGGGCCAUGGCUGUAUGUACUGUCGCUGUGUUUUUUUGUUUUUUUAGAACUGGGUUUGGGGGCUGAUUUUUAUUUCUUUGGGGGCUUUUUUUCUUGGCAAAUACUCAACAGAGGAUUGAGCAUCA"}, "B7": {"name": "chr15:76949589:76949706:+|3pUTR|ENSG00000117906|msi1_unk|total|mutant (ssRNA)", "RNA": "GGGAGUUCUACAGUCCGACGAUCAUAAAUUUUUGUUUUUGUUCUAAGCCGAUUUAAUUUGGGAACUGACAGGACAAUGUUUUCCGGUUCCGCAUUUUGUUUAAAAACCUUUAAAGAAACCUUCCGAAGGACUCCGACCUCACACAACAGAGGAUUGAGCAUCA"}, "B8": {"name": "chr6:151351738:151351839:+|CDS|ENSG00000131016|msi1|total|mutant (ssRNA)", "RNA": "GGGAGUUCUACAGUCCGACGAUCGGUGGUGGGGCAGACCACCCCAGAAAGCUUUGAAAAAGCUCCUCAAGUCACAGAGAGCACCGAGUCCAGUGAGCUUGUAACCACUUGUCAAGCCGAAACCUCCGCUGGGGUAAAAUCACACAACAGAGGAUUGAGCAUCA"}, "B9": {"name": "chr11:73394502:73394603:+|CDS|ENSG00000054967|msi1|total|mutant (ssRNA)", "RNA": "GGGAGUUCUACAGUCCGACGAUCCACCAUCUCCACACCGUGCAGGGCCUGGCCUCGCUCUCUGGCCCCUGCUGCUCCCGCUGCCGCCAGAAGAAGUGGCCCGAGGUGCUGCUGUCCCCUGAGGCUGCCGCCGCCACUACUCCUCAACAGAGGAUUGAGCAUCA"}, "B10": {"name": "chr3:152464585:152464701:+|3pUTR|ENSG00000152601|msi1|total|mutant (ssRNA)", "RNA": "GGGAGUUCUACAGUCCGACGAUCAUAUUUUUGAAAUCCCUGAGUAUCAGGCCUUGUUAUAAAUAAGCUGCAUAAUCAAUAAACCGAACAAGGGACUUUUUGUUGAUAAUCCAAAUACUCAAAGUUUACGUAAUGAAAAUUAUACAACAGAGGAUUGAGCAUCA"}, "B11": {"name": "chr19:14961309:14961997:-|three_prime_utr|ENSG00000105143|control|control|control (ssRNA)", "RNA": "GGGAGUUCUACAGUCCGACGAUCGAUUCACUUACCCACUCACCAACUCAUUCAUUCAUGUCUUUCUGGGAUGAUUUCAUCACUAGUUGACUUCCUUGUUCAUCUGUUCAUUCAUUCAUUCUUCUAUGCAUUGGUUAGUUCAUGCAACAGAGGAUUGAGCAUCA"}, "B12": {"name": "ENSG00000167767:stop:overlap|stop_codon|ENSG00000167767|stop_codon|NA|stop_codon (ssRNA)", "RNA": "GGGAGUUCUACAGUCCGACGAUCGCGCUGUGCAGUCCAGGUGCAAAACCGCCCCUUCCCUCCCCUACCCCUUAUGUUCCCUGUAGCUGCCUCCAGAUCAGGCCUCUCCAAGGCCCCCUCCCGAAAGAAGAAGGGCAGCAAAGGCAACAGAGGAUUGAGCAUCA"}, "B13": {"name": "chr8:27733518:27733645:-|3pUTR|ENSG00000147419|unk|FALSE|unique (ssRNA)", "RNA": "GGGAGUUCUACAGUCCGACGAUCGACCUUUUGAUUUUGAAGCAGACUAAAAUCUGACCAGACCACAAUGAAAAGUAUAAAAUUAGAAACUUAAAUUCCAAGCUAAAUUUCAGCUUUGACCCACCUAACUCCAGUGAAUAGGUGCAACAGAGGAUUGAGCAUCA"}, "B14": {"name": "chr22:46316300:46316401:+|CDS|ENSG00000075218|unk|total|mutant (ssRNA)", "RNA": "GGGAGUUCUACAGUCCGACGAUCGGCGGCCAGUGGCUGAACUCCAGUUGCGCUUGGUCAGAAUCUUCUCAAUUGAAUAAGACCCGAAGUAUCAGACGGCGAGAUUCCUGUCUAAAUUCCAAGACAAAGGUUAUGCCUACUCCUCAACAGAGGAUUGAGCAUCA"}}, "note": "This is one part of the list.", "data": [{"target": "T1, UNK ZnF1-6 (called full-length) (human, UniProt Q9C0B0 30-357)", "T1 sequence": "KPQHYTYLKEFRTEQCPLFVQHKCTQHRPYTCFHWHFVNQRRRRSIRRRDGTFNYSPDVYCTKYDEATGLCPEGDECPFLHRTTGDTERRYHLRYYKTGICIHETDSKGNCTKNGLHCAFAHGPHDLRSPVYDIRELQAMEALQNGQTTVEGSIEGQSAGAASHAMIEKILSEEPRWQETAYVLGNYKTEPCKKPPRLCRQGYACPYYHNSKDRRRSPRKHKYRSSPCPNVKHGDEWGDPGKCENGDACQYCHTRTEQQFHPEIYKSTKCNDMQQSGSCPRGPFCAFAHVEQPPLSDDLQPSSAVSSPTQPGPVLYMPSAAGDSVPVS", "assay": "nsRBNS (natural sequence RNA bind-n-seq); RBNS binding buffer (assumed for nsRBNS): 25 mM Tris pH 7.5, 150 mM KCl, 3 mM MgCl2, 0.01% Triton X-100, 500 ug/ml BSA, 20 U/ml SUPERase-In, 4 C; UNK is unkempt and MSI1 is Musashi-1; names of the RNAs are library labels; protein concentration not given here; high values mean tight binding", "units": {"binding signal": "enrichment R"}, "values": [{"binder": "B1", "binding signal": 1.07}, {"binder": "B2", "binding signal": 4.03}, {"binder": "B3", "binding signal": 0.564}, {"binder": "B4", "binding signal": 8.5}, {"binder": "B5", "binding signal": 0.246}, {"binder": "B6", "binding signal": 2.3}, {"binder": "B7", "binding signal": 0.382}, {"binder": "B8", "binding signal": 0.527}, {"binder": "B9", "binding signal": 0.888}, {"binder": "B10", "binding signal": 0.593}, {"binder": "B11", "binding signal": 0.569}, {"binder": "B12", "binding signal": 2.49}, {"binder": "B13", "binding signal": 1.97}, {"binder": "B14", "binding signal": 0.618}]}]}
